Reference: the supplement of paper PMC10369915
Some of the results follow. No stated cut-off is given here; in the data, active = 3.2 or more and inactive = the rest. The signal is at background level for most entries.

What was measured:
Assay in all cases: enrichment score (SH2-bound / input frequency) (ratio); bacterial display of known human phosphotyrosine sites (pTyr-Var adds point mutants) read by sequencing; higher = stronger binding; tyrosines were phosphorylated by kinases first
SHP2 C-SH2 domain E139D = target: SHP2 C-SH2 domain E139D
[1] = target: SHP2 C-SH2 domain wild-type
SHP2 N-SH2 domain L43F = target: SHP2 N-SH2 domain L43F
SHP2 N-SH2 domain T42A = target: SHP2 N-SH2 domain T42A
SHP2 N-SH2 domain T52S = target: SHP2 N-SH2 domain T52S
[2] = target: SHP2 N-SH2 domain wild-type

Measured: enrichment score
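Further: displayed peptides selected on beads carrying the immobilized SH2 domain, with library peptides lacking any tyrosine serving as negative controls.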

B1: RAB14_Y8_A4T (peptide)
chain: TTPYNYSYIFK
inactive: SHP2 C-SH2 domain E139D; peptide library: pTyr-Var 0.785 | [1]; peptide library: pTyr-Var 1.37 | SHP2 N-SH2 domain L43F; peptide library: pTyr-Var 0.981 | SHP2 N-SH2 domain T42A; peptide library: pTyr-Var 2.61 | SHP2 N-SH2 domain T52S; peptide library: pTyr-Var 0.833 | [2]; peptide library: pTyr-Var 0.756

B2: RAPH1_Y1226 (peptide)
chain: SHISGYATLRR
inactive: SHP2 C-SH2 domain E139D; peptide library: pTyr-Var 0.231 | [1]; peptide library: pTyr-Var 0.353 | SHP2 N-SH2 domain L43F; peptide library: pTyr-Var 0.24 | SHP2 N-SH2 domain T42A; peptide library: pTyr-Var 0.21 | SHP2 N-SH2 domain T52S; peptide library: pTyr-Var 0.249 | [2]; peptide library: pTyr-Var 0.246

B3: PYGM_Y281 (peptide)
chain: ISRVLYPNDNF
inactive: SHP2 C-SH2 domain E139D; peptide library: pTyr-Var 1.34 | [1]; peptide library: pTyr-Var 1.04 | SHP2 N-SH2 domain L43F; peptide library: pTyr-Var 1.22 | SHP2 N-SH2 domain T42A; peptide library: pTyr-Var 0.996 | SHP2 N-SH2 domain T52S; peptide library: pTyr-Var 1.26 | [2]; peptide library: pTyr-Var 1.1

B4: PTS_Y128_YF (peptide)
chain: PVGVLYKVKVF
inactive: SHP2 C-SH2 domain E139D; peptide library: pTyr-Var 1.45 | [1]; peptide library: pTyr-Var 1.48 | SHP2 N-SH2 domain L43F; peptide library: pTyr-Var 1.2 | SHP2 N-SH2 domain T42A; peptide library: pTyr-Var 1.14 | SHP2 N-SH2 domain T52S; peptide library: pTyr-Var 1.44 | [2]; peptide library: pTyr-Var 1.46

B5: RAPGEF6_Y1447 (peptide)
chain: TYEPNYGTVKQ
inactive: SHP2 C-SH2 domain E139D; peptide library: pTyr-Var 0.552 | [1]; peptide library: pTyr-Var 0.632 | SHP2 N-SH2 domain L43F; peptide library: pTyr-Var 0.565 | SHP2 N-SH2 domain T42A; peptide library: pTyr-Var 0.594 | SHP2 N-SH2 domain T52S; peptide library: pTyr-Var 0.531 | [2]; peptide library: pTyr-Var 0.649

B6: PTPRZ1_Y2179_D2178N (peptide)
chain: ATQDNYVLEVR
inactive: SHP2 C-SH2 domain E139D; peptide library: pTyr-Var 0.869 | [1]; peptide library: pTyr-Var 0.808 | SHP2 N-SH2 domain L43F; peptide library: pTyr-Var 0.883 | SHP2 N-SH2 domain T42A; peptide library: pTyr-Var 0.652 | SHP2 N-SH2 domain T52S; peptide library: pTyr-Var 0.747 | [2]; peptide library: pTyr-Var 0.889

B7: RAB7A_Y28 (peptide)
chain: SLMNQYVNKKF
inactive: SHP2 C-SH2 domain E139D; peptide library: pTyr-Var 0.708 | [1]; peptide library: pTyr-Var 0.596 | SHP2 N-SH2 domain L43F; peptide library: pTyr-Var 0.565 | SHP2 N-SH2 domain T42A; peptide library: pTyr-Var 0.473 | SHP2 N-SH2 domain T52S; peptide library: pTyr-Var 0.627 | [2]; peptide library: pTyr-Var 0.699

B8: GJA1_HUMAN_265 (peptide)
chain: KDCGSQKYAYFNGCS
inactive: SHP2 C-SH2 domain E139D; peptide library: Human pTyr 1.21 | [1]; peptide library: Human pTyr 1.72 | SHP2 N-SH2 domain L43F; peptide library: Human pTyr 1.41 | SHP2 N-SH2 domain T42A; peptide library: Human pTyr 1.07 | SHP2 N-SH2 domain T52S; peptide library: Human pTyr 1.25 | [2]; peptide library: Human pTyr 1.47

B9: RAC1_Y64_D63G (peptide)
chain: AGQEGYDRLRP
inactive: SHP2 C-SH2 domain E139D; peptide library: pTyr-Var 0.556 | [1]; peptide library: pTyr-Var 0.502 | SHP2 N-SH2 domain L43F; peptide library: pTyr-Var 0.697 | SHP2 N-SH2 domain T42A; peptide library: pTyr-Var 0.471 | SHP2 N-SH2 domain T52S; peptide library: pTyr-Var 0.51 | [2]; peptide library: pTyr-Var 0.666

B10: RANBP17_Y823 (peptide)
chain: SKDQIYPMKLK
inactive: SHP2 C-SH2 domain E139D; peptide library: pTyr-Var 0.749 | [1]; peptide library: pTyr-Var 0.633 | SHP2 N-SH2 domain L43F; peptide library: pTyr-Var 0.683 | SHP2 N-SH2 domain T42A; peptide library: pTyr-Var 0.744 | SHP2 N-SH2 domain T52S; peptide library: pTyr-Var 0.687 | [2]; peptide library: pTyr-Var 0.796

B11: RAPGEF6_Y1447_Q1452R_YF (peptide)
chain: TFEPNYGTVKR
inactive: SHP2 C-SH2 domain E139D; peptide library: pTyr-Var 0.682 | [1]; peptide library: pTyr-Var 0.706 | SHP2 N-SH2 domain L43F; peptide library: pTyr-Var 0.598 | SHP2 N-SH2 domain T42A; peptide library: pTyr-Var 0.485 | SHP2 N-SH2 domain T52S; peptide library: pTyr-Var 0.613 | [2]; peptide library: pTyr-Var 0.709

B12: RAB3C_Y50_R49H (peptide)
chain: SFLFHYADDSF
inactive: SHP2 C-SH2 domain E139D; peptide library: pTyr-Var 1.91 | [1]; peptide library: pTyr-Var 1.85 | SHP2 N-SH2 domain L43F; peptide library: pTyr-Var 2.15 | SHP2 N-SH2 domain T42A; peptide library: pTyr-Var 2.11 | SHP2 N-SH2 domain T52S; peptide library: pTyr-Var 2.16 | [2]; peptide library: pTyr-Var 2.09

B13: RAPH1_Y1226_T1228A (peptide)
chain: SHISGYAALRR
inactive: SHP2 C-SH2 domain E139D; peptide library: pTyr-Var 0.244 | [1]; peptide library: pTyr-Var 0.285 | SHP2 N-SH2 domain L43F; peptide library: pTyr-Var 0.237 | SHP2 N-SH2 domain T42A; peptide library: pTyr-Var 0.273 | SHP2 N-SH2 domain T52S; peptide library: pTyr-Var 0.252 | [2]; peptide library: pTyr-Var 0.211

B14: RAD50_Y964_Y964H (peptide)
chain: KDIENHIQDGK
inactive: SHP2 C-SH2 domain E139D; peptide library: pTyr-Var 0.389 | [1]; peptide library: pTyr-Var 0.425 | SHP2 N-SH2 domain L43F; peptide library: pTyr-Var 0.628 | SHP2 N-SH2 domain T42A; peptide library: pTyr-Var 0.434 | SHP2 N-SH2 domain T52S; peptide library: pTyr-Var 0.401 | [2]; peptide library: pTyr-Var 0.455

B15: PTS_Y128_V124L_YF (peptide)
chain: PLGVLYKVKVF
inactive: SHP2 C-SH2 domain E139D; peptide library: pTyr-Var 0.812 | [1]; peptide library: pTyr-Var 1.18 | SHP2 N-SH2 domain L43F; peptide library: pTyr-Var 1.05 | SHP2 N-SH2 domain T42A; peptide library: pTyr-Var 1.25 | SHP2 N-SH2 domain T52S; peptide library: pTyr-Var 0.581 | [2]; peptide library: pTyr-Var 1.52

B16: RARS1_Y516 (peptide)
chain: NRLNDYIFSFD
inactive: SHP2 C-SH2 domain E139D; peptide library: pTyr-Var 1.28 | [1]; peptide library: pTyr-Var 1.23 | SHP2 N-SH2 domain L43F; peptide library: pTyr-Var 1.18 | SHP2 N-SH2 domain T42A; peptide library: pTyr-Var 1.51 | SHP2 N-SH2 domain T52S; peptide library: pTyr-Var 1.16 | [2]; peptide library: pTyr-Var 1.31

B17: RAD23A_Y197 (peptide)
chain: HRAVEYLLTGI
inactive: SHP2 C-SH2 domain E139D; peptide library: pTyr-Var 1.41 | [1]; peptide library: pTyr-Var 1.06 | SHP2 N-SH2 domain L43F; peptide library: pTyr-Var 1.07 | SHP2 N-SH2 domain T42A; peptide library: pTyr-Var 2.52 | SHP2 N-SH2 domain T52S; peptide library: pTyr-Var 1.23 | [2]; peptide library: pTyr-Var 0.863

B18: RAI14_Y869_A870S (peptide)
chain: AEMKRYSESSS
inactive: SHP2 C-SH2 domain E139D; peptide library: pTyr-Var 0.631 | [1]; peptide library: pTyr-Var 0.59 | SHP2 N-SH2 domain L43F; peptide library: pTyr-Var 0.723 | SHP2 N-SH2 domain T42A; peptide library: pTyr-Var 0.605 | SHP2 N-SH2 domain T52S; peptide library: pTyr-Var 0.471 | [2]; peptide library: pTyr-Var 0.644

B19: PURA_Y156_YF (peptide)
chain: ENRKFYMDLKE
inactive: SHP2 C-SH2 domain E139D; peptide library: pTyr-Var 1.15 | [1]; peptide library: pTyr-Var 0.927 | SHP2 N-SH2 domain L43F; peptide library: pTyr-Var 0.932 | SHP2 N-SH2 domain T42A; peptide library: pTyr-Var 0.821 | SHP2 N-SH2 domain T52S; peptide library: pTyr-Var 1.07 | [2]; peptide library: pTyr-Var 1.06
